According to paper PMC4336329 (PLoS ONE, 2015):
Among all 310,000 compounds or so, about 2,200 (0.71%) showed an effect of 50% or more. Effects have a minus sign here. The list shows a part of the results.

biological target: human ether-à-go-go-related gene (hERG) potassium channel (human, UniProt Q12809); test: primary screen, population patch clamp on CHO cells stably expressing hERG
Sequence (Q12809 whole entry, looked up): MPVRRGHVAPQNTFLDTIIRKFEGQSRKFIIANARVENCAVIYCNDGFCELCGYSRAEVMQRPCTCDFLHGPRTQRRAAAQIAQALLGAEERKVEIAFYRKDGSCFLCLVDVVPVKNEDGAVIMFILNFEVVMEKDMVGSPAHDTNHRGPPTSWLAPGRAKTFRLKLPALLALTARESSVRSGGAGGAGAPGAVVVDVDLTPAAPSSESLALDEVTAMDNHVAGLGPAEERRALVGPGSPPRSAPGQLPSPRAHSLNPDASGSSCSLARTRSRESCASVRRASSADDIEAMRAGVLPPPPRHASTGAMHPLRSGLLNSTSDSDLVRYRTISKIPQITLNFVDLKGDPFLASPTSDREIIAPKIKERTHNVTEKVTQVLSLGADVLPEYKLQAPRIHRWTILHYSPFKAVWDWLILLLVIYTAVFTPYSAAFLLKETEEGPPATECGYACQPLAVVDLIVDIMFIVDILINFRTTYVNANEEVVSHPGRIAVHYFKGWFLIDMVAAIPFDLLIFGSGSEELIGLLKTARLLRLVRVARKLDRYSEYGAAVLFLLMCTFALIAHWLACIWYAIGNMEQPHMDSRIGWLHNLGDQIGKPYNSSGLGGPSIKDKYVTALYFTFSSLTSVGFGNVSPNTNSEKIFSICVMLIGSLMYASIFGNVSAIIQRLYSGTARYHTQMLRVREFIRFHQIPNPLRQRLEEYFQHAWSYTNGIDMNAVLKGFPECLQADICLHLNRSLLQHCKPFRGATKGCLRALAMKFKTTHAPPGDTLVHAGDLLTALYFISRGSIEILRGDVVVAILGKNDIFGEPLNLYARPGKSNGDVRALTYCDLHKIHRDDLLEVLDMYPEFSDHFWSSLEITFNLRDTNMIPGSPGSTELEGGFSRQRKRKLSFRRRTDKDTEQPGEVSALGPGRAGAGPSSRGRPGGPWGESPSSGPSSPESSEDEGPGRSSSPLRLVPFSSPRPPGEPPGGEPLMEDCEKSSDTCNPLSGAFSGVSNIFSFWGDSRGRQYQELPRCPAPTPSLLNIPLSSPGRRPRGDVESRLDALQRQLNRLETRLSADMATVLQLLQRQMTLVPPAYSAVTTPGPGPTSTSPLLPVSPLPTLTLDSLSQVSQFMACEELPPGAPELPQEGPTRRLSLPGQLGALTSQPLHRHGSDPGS

In order of rising “hERG current change (%, negative = inhibition) at 1uM” value:
1. CCCCCCCN1C(Nc2ccccc2)=NC[C@@H]1C  -55.2%
2. CC1CCCN(CCOCCOc2ccccc2-c2ccccc2)C1.O=C(O)C(=O)O (centres unmarked)  -42.6%
3. O=C(CN(Cc1ccc(Cl)cc1)C(=O)c1csnn1)NCc1ccccc1  -27.4%
4. N=c1c2c3c(sc2ncn1CCCN1CCOCC1)CCCCC3  -19.8%
5. CCCCCN=Cc1c(C)[nH]n(-c2nc3ccccc3s2)c1=O  -16.9%
6. COc1ccc2oc(C(=O)c3ccccc3)c(NC(=O)CN3CCN(C)CC3)c2c1  -12.2%
7. COc1ccc(C(=O)Nn2c(C)ccc2C)cc1OC  -10.7%
8. Cc1ccc(P(=O)(CO)c2ccc(C)cc2)cc1  -7.37%
9. COc1ccc([N+](=O)[O-])cc1NC(=O)c1ccccc1SC  -6.85%
10. CCN(CC)CCCNC(=O)c1cc(-c2ccccc2)c(N2CCCCC2)s1  -4.84%
11. CCc1ccc(C(C(=O)NCCOC)N(C(=O)Cn2nnc3ccccc32)c2cccnc2)cc1 (centres unmarked)  -4.66%
12. COc1ccc(/C(N)=N/OC(=O)CCC2CCCC2)cc1OC  -3.95%
13. O=C(Nc1ccc2nc3n(c(=O)c2c1)CCCC3)c1cncc(Br)c1  -3.39%
14. Cc1ccc(C(=O)O/N=C2\CCSc3ccc(C)cc32)cc1  -3.19%
15. COC(=O)Cc1[nH]nc2c1C1(C(=O)N(Cc3ccccc3)c3ccccc31)C(C#N)=C(N)O2 (centres unmarked)  -1.87%
16. N#Cc1ccccc1NC(=O)c1ccc2c(c1)OCO2  -1.24%
17. Cc1nc2nc3c(c(=O)n2[nH]1)CCCC3  -0.889%
18. CSc1ccccc1NC(=O)c1ccc(N2CCCC2=O)cc1  -0.834%
19. CC(C)CC(=O)Nc1nnn(C)n1  0.386%
20. Fc1ccccc1/C=C1\CCCC2=C1Nc1ncnn1C2c1ccccc1F (centres unmarked)  0.998%
21. CN1CCN(c2nc3ccccn3c(=O)c2/C=C(\C#N)S(=O)(=O)c2ccccc2)CC1  1.05%
22. COc1coc(C(O)C[N+](=O)[O-])cc1=O (centres unmarked)  1.07%
23. Cc1ccc(S(=O)(=O)NCc2cccnc2)s1  1.36%
24. O=C(Nc1ccc(Cl)cc1Cl)c1n[nH]c(Cn2cncn2)n1  1.44%
25. Cc1nn(Cc2cccc(F)c2)c(C)c1NC(=O)c1c([N+](=O)[O-])c(C)nn1C  2.77%
26. COc1cccc(CN2C(=O)CCC2(C)C(=O)NC2CCCCCC2)c1 (centres unmarked)  3.35%
27. CCN(CC)c1ccc(/C=C(\C#N)c2ccccn2)cc1  3.45%
28. CCCCn1c(-c2c(Cl)c(C)nn2C)n[nH]c1=S  3.51%
29. CC(=O)NCCNC(=O)c1cccc(NS(=O)(=O)c2ccc3c(c2)OCCO3)c1  3.7%
30. CC(NC(=O)c1ccc(S(C)(=O)=O)cc1)c1cccc2ccccc12 (centres unmarked)  4.13%
31. O=C(CCN1C(=O)c2ccccc2C1=O)Nc1ccc2c(c1)OCCO2  4.26%
32. Cc1ccc(/C=C/c2ccc(=O)n(Cc3ccc(Cl)cc3Cl)n2)cc1  4.3%
33. COc1cccc(NC(=O)C2CC(=O)N(Cc3ccco3)C2)c1 (centres unmarked)  4.31%
34. Cc1ccc(S(=O)(=O)N(C)C)cc1NC(=S)N(CCC#N)Cc1cccnc1  4.46%
35. CCC(=O)N1CCN(c2ccccc2NC(=O)COc2ccccc2Cl)CC1  4.56%
36. COC(=O)Nc1ccc(S(=O)(=O)Nc2ccc(O)cc2)cc1  4.63%
37. CCN1CCN(C(=O)C2(NC(=O)Nc3cccc(F)c3)CCCCC2)CC1  4.91%
38. COc1cccc(Cn2c(NCc3cccnc3)nc3c2c(=O)n(C)c(=O)n3C)c1  4.99%
39. Cc1cc(C)nc(Nc2n[nH]c(COc3ccc4ccccc4c3)n2)n1  5.27%
40. CCN(CC)CCCNC(=O)c1cc(-c2ccc3c(c2)OCO3)on1  5.38%
41. COc1cccc2c3c(c(=O)[nH]c12)CC(C)(C)O3  5.53%
42. CC(C(=O)Nc1ccccn1)(c1ccccc1)c1ccccc1.Cl  5.77%
43. Nc1c(N)c2ccccc2oc1=O  6.57%
44. O=C(NCCc1c[nH]c2ccc(Cl)cc12)c1ccc([N+](=O)[O-])cc1  6.91%
45. COc1ccc(C(=O)NCCc2nnc(SCC(=O)Nc3ccccc3F)n2C)cc1  7.12%
46. COc1ccc(C(CC(=O)Nc2cc(OC)cc(OC)c2)n2cccc2)cc1 (centres unmarked)  7.54%
47. OCCCNc1ncnc2sc3c(c12)CCN(Cc1ccccc1)C3  7.54%
48. Cc1nn(C)c(C)c1S(=O)(=O)N(CC(=O)N1CCc2ccccc2C1)c1ccc(C(C)C)cc1  7.85%
49. Nc1nc(F)cc(NCc2ccccc2)n1  7.98%
50. Cc1sc(NC(=O)CSc2nc(O)cc(=O)[nH]2)nc1-c1ccccc1  8.02%
51. CNS(=O)(=O)c1cnccc1N1CCN(c2cccc(Cl)c2)CC1  8.1%
52. COc1ccc(N(CC(=O)NCc2ccccc2C)S(=O)(=O)c2ccccc2[N+](=O)[O-])c(OC)c1  8.12%
53. Cc1ccccc1-n1ncc2c(SCC(=O)N3c4ccccc4CC3C)ncnc21 (centres unmarked)  8.33%
54. NC(=O)C(=O)N/N=C/c1c(F)c(F)c(F)c(F)c1F  8.35%
55. CC1=C[C@H](C)[C@H](c2c(F)cccc2Cl)CC1=O  8.46%
56. O=C1NC(NS(=O)(=O)c2ccccc2)(C(F)(F)F)C(=O)N1Cc1cccnc1 (centres unmarked)  8.79%
57. NC(=O)c1nsc(C(=O)N(c2ccc(F)cc2)C(C(=O)NCC2CCCO2)c2c[nH]c3ccccc23)c1N (centres unmarked)  9%
58. O=C(O)c1ccc(NC(=S)NCc2ccccc2)cc1  9.38%
59. COc1ccc(/C=C2\Sc3ccc(C(=O)NCC4CCCO4)cc3N(C)C2=O)cc1 (centres unmarked)  9.73%
60. O=C(O)CCCn1cc(NC(=O)COc2ccc([N+](=O)[O-])cc2)cn1  10.1%
61. Cc1nc2ccccc2c(=O)n1/N=C/c1ccc(N(C)C)cc1  10.3%
62. Cc1cc2nc(-c3ccc(SCC(=O)Nc4ccc(S(=O)(=O)NC5CC5)cc4)nc3)[nH]c2cc1C  10.4%
63. Cc1cc(-c2nnc(CCC(=O)N(C)CCc3ccccc3)o2)no1  10.8%
64. Cc1cc(NC(=O)CSCC(=O)OC(C)C(=O)c2cc(C)c(C)cc2C)no1 (centres unmarked)  11.5%
65. CCc1cc2ccc(C)c(C)c2nc1SCC(=O)NNC(=O)c1ccco1  11.7%
66. Cc1ccc(OCc2cc(C(=O)N(CCO)Cc3cccs3)no2)cc1C  11.9%
67. Cc1nn(-c2ccccc2)c(C)c1-c1nnc(-c2c(C)nn(-c3ccccc3)c2C)o1  11.9%
68. O=C(CSc1ccc(Br)cc1)NCC1CCCO1 (centres unmarked)  11.9%
69. CC(C)(C)N1[C@@H](CC(=O)O)c2cc(C(F)(F)F)ccc2S1(=O)=O  12%
70. COc1cc2c(cc1NC(C)=O)CCCC2  12.1%
71. CN(C)S(=O)(=O)c1cccc(NC(=O)CSc2nc3ccccc3[nH]2)c1  12.2%
72. N#C/C(=C\C=C\c1ccccc1)C(=O)N1CCCC1  12.3%
73. C=CCn1cc(/C=C2/NC(=O)NC2=O)c2ccccc21  12.6%
74. CN(C)C1N(C(=O)c2ccccc2)N=C2c3ccccc3S(=O)(=O)N21 (centres unmarked)  12.9%
75. CC(CN1CCCC1)OC(=O)c1cccc(F)c1.Cl (centres unmarked)  13.2%
76. C=CCNC(C(=O)Nc1cccc(OC)c1)c1ccccc1 (centres unmarked)  13.3%
77. COc1cccc(C(=O)Nc2cc(C(F)(F)F)ccc2Cl)c1  13.5%
78. O=c1cc(O)c(-c2cccc(Cl)c2)c(Cl)[nH]1  14.3%
79. O=C(Oc1ccc2cccc(OC(=O)N3CCOCC3)c2c1)N1CCOCC1  15.7%
80. N#CC(C(=O)CCN1C(=O)C2CC=CCC2C1=O)c1nc2ccccc2[nH]1 (centres unmarked)  15.8%
81. COc1cc(/C=C2\SC(=Nc3ccccc3)NC2=O)cc(Cl)c1O  16.1%
82. CN1C(=O)Cc2cc(S(=O)(=O)N3CCN(c4cccc(C(F)(F)F)c4)CC3)ccc21  16.2%
83. CCC(CC)N1CCN(S(=O)(=O)c2ccc(OC)cc2)CC1.O=C(O)C(=O)O  16.6%
84. Cn1c(NC(=O)CCC2CCCCC2)cc(=O)n(C)c1=O  16.7%
85. CC1SCC(=NOCc2c(Cl)cccc2Cl)CS1 (centres unmarked)  17.2%
86. CN1CCN(CCCNC(=O)c2ccc(/C=C3\Oc4ccccc4N(Cc4ccc(Cl)cc4)C3=O)cc2)CC1  18.7%
87. CN(CC(=O)Nc1ccc(F)cc1)C(=O)COC(=O)CNC(=O)c1sc2ccccc2c1Cl  19.4%
88. COc1ccc(Cl)cc1NC(=O)C/C(C)=N/NC(=O)c1ccccc1Cl  22.3%
89. NC(=O)c1ccc(C(F)(F)F)n(Cc2c(Cl)cccc2Cl)c1=O  22.9%
